# Measured values from the supplement of paper PMC8728848.
# The other results are listed elsewhere or left out.
# Legend:
# Experiment in all cases: glycan array binding signal (z-score within array); higher = stronger binding
# Details in all cases: glycan notation: IUPAC condensed, linker removed
# [1] = target: Fuc(a1-2)Gal(b1-4)GlcNAc(b1-3)Gal(b1-4)GlcNAc(b1-3)Gal(b1-4)GlcNAc
# Summary of the method: (§1)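 Glycan array binding is given as a within-array Z-score, which can be read as non-binding when negative. The arrays, 3228 of them, came from the Consortium for Functional Glycomics database and were retained only where the protein sequence was available. Z-scores were averaged across arrays of the same protein sequence at different concentrations or buffers and across linkers.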
# [2] = target: Fuc(a1-2)Gal(b1-4)GlcNAc(b1-3)GalNAc
# Summary of the method: as §1
# [3] = target: Fuc(a1-2)Gal(b1-4)GlcNAc(b1-3)[Fuc(a1-2)Gal(b1-4)GlcNAc(b1-6)]GalNAc
# Summary of the method: as §1
# [4] = target: Fuc(a1-2)Gal(b1-4)GlcNAc(b1-3)[Fuc(a1-3)[Gal(b1-4)]GlcNAc(b1-6)]Gal(b1-4)Glc
# Summary of the method: as §1
# [5] = target: Fuc(a1-2)Gal(b1-4)GlcNAc(b1-6)GalNAc
# Summary of the method: as §1
# [6] = target: Fuc(a1-2)Gal(b1-4)GlcNAc6S
# Summary of the method: as §1
# [7] = target: Fuc(a1-2)Gal(b1-4)[Fuc(a1-3)]GlcNAc
# Summary of the method: as §1
# [8] = target: Fuc(a1-2)Gal(b1-4)[Fuc(a1-3)]GlcNAc(b1-2)Man(a1-3)[Fuc(a1-2)Gal(b1-4)[Fuc(a1-3)]GlcNAc(b1-2)Man(a1-6)]Man(b1-4)GlcNAc(b1-4)[Fuc(a1-6)]GlcNAc
# Summary of the method: as §1
# [9] = target: Fuc(a1-2)Gal(b1-4)[Fuc(a1-3)]GlcNAc(b1-2)[Fuc(a1-2)Gal(b1-4)[Fuc(a1-3)]GlcNAc(b1-4)]Man(a1-3)[Fuc(a1-2)Gal(b1-4)[Fuc(a1-3)]GlcNAc(b1-2)Man(a1-6)]Man(b1-4)GlcNAc(b1-4)GlcNAc
# Summary of the method: as §1
# [10] = target: Fuc(a1-2)Gal(b1-4)[Fuc(a1-3)]GlcNAc(b1-3)Gal(b1-4)[Fuc(a1-3)]GlcNAc
# Summary of the method: as §1
# [11] = target: Fuc(a1-2)Gal(b1-4)[Fuc(a1-3)]GlcNAc(b1-3)Gal(b1-4)[Fuc(a1-3)]GlcNAc(b1-3)Gal(b1-4)[Fuc(a1-3)]GlcNAc
# Summary of the method: as §1
# [12] = target: Fuc(a1-2)Gal(b1-4)[Fuc(a1-3)]GlcNAc(b1-3)GalNAc
# Summary of the method: as §1
# [13] = target: Fuc(a1-2)Gal(b1-4)[Fuc(a1-3)]GlcNAc(b1-3)[Neu5Ac(a2-6)Gal(b1-4)GlcNAc(b1-6)]Gal(b1-4)Glc
# Summary of the method: as §1
# [14] = target: Fuc(a1-2)Gal3S(b1-4)GlcNAc
# Summary of the method: as §1
# [15] = target: Fuc(a1-2)Gal6S(b1-3)GlcNAc
# Summary of the method: as §1
# [16] = target: Fuc(a1-2)Gal6S(b1-3)GlcNAc6S
# Summary of the method: as §1
# [17] = target: Fuc(a1-2)Gal6S(b1-4)Glc
# Summary of the method: as §1
# [18] = target: Fuc(a1-2)Gal6S(b1-4)Glc6S
# Summary of the method: as §1
# [19] = target: Fuc(a1-2)[Gal(a1-3)]Gal
# Summary of the method: as §1
# [20] = target: Fuc(a1-2)[Gal(a1-3)]Gal(b1-3)GalNAc
# Summary of the method: as §1
# [21] = target: Fuc(a1-2)[Gal(a1-3)]Gal(b1-3)GalNAc(b1-3)Gal(a1-4)Gal(b1-4)Glc
# Summary of the method: as §1
# [22] = target: Fuc(a1-2)[Gal(a1-3)]Gal(b1-3)GlcNAc
# Summary of the method: as §1
# [23] = target: Fuc(a1-2)[Gal(a1-3)]Gal(b1-3)GlcNAc(b1-2)Man(a1-3)[Fuc(a1-2)[Gal(a1-3)]Gal(b1-3)GlcNAc(b1-2)Man(a1-6)]Man(b1-4)GlcNAc(b1-4)GlcNAc
# Summary of the method: as §1
# [24] = target: Fuc(a1-2)[Gal(a1-3)]Gal(b1-3)GlcNAc(b1-2)Man(a1-3)[Fuc(a1-2)[Gal(a1-3)]Gal(b1-3)GlcNAc(b1-2)Man(a1-6)]Man(b1-4)GlcNAc(b1-4)[Fuc(a1-6)]GlcNAc
# Summary of the method: as §1
# [25] = target: Fuc(a1-2)[Gal(a1-3)]Gal(b1-3)GlcNAc(b1-3)GalNAc
# Summary of the method: as §1
# [26] = target: Fuc(a1-2)[Gal(a1-3)]Gal(b1-3)GlcNAc(b1-6)GalNAc
# Summary of the method: as §1
# [27] = target: Fuc(a1-2)[Gal(a1-3)]Gal(b1-4)Glc
# Summary of the method: as §1
# [28] = target: Fuc(a1-2)[Gal(a1-3)]Gal(b1-4)GlcNAc
# Summary of the method: as §1
# [29] = target: Fuc(a1-2)[Gal(a1-3)]Gal(b1-4)GlcNAc(b1-2)Man
# Summary of the method: as §1
# [30] = target: Fuc(a1-2)[Gal(a1-3)]Gal(b1-4)GlcNAc(b1-2)Man(a1-3)[Fuc(a1-2)[Gal(a1-3)]Gal(b1-4)GlcNAc(b1-2)Man(a1-6)]Man(b1-4)GlcNAc(b1-4)GlcNAc
# Summary of the method: as §1
binder,measurement,setting,value
Clone730PsrP (Streptococcus pneumoniae) (protein) MDHHHHHHHHHHASENLYFQGAMVVGSQTAAATEATAKKVEEDRKKPASDYVASVTNVNLQSYAKRRKRSVDSIEQLLASIKNAAVFSGNTIVNGAPAINASLNIAKSETKVYTGEGVDSVYRVPIYYKLKVTNDGSKLTFTYTVTYVNPKTNDLGNISSMRPGYSIYNSGTSTQTMLTLGSDLGKPSGVKNYITDKNGRQVLSYNTSTMTTQGSGYTWGNGAQMNGFFAKKGYGLTSSWTVPITGTDTSFTFTPYAARTDRIGINYFNGGGKVVESSTT,glycan array binding signal (z-score),[1],-0.43
same,glycan array binding signal (z-score),[2],0.263
same,glycan array binding signal (z-score),[3],-0.13
same,glycan array binding signal (z-score),[4],-0.648
same,glycan array binding signal (z-score),[5],1.79
same,glycan array binding signal (z-score),[6],-0.272
same,glycan array binding signal (z-score),[7],-0.389
same,glycan array binding signal (z-score),[8],-0.276
same,glycan array binding signal (z-score),[9],-0.022
same,glycan array binding signal (z-score),[10],-0.547
same,glycan array binding signal (z-score),[11],0.285
same,glycan array binding signal (z-score),[12],-0.079
same,glycan array binding signal (z-score),[13],0.031
same,glycan array binding signal (z-score),[14],-0.452
same,glycan array binding signal (z-score),[15],0.156
same,glycan array binding signal (z-score),[16],1.57
same,glycan array binding signal (z-score),[17],-0.11
same,glycan array binding signal (z-score),[18],-0.405
same,glycan array binding signal (z-score),[19],-0.101
same,glycan array binding signal (z-score),[20],0.717
same,glycan array binding signal (z-score),[21],0.43
same,glycan array binding signal (z-score),[22],0.133
same,glycan array binding signal (z-score),[23],-0.478
same,glycan array binding signal (z-score),[24],0.874
same,glycan array binding signal (z-score),[25],-0.333
same,glycan array binding signal (z-score),[26],0.086
same,glycan array binding signal (z-score),[27],0.235
same,glycan array binding signal (z-score),[28],0.008
same,glycan array binding signal (z-score),[29],0.272
same,glycan array binding signal (z-score),[30],-0.217
